The densities may have been worked out from excess volumes.
Experiment: xn = mol fraction of the nth substance listed
Details: 101 kPa

COCCO + CC[n+]1ccn(C)c1.O=S(=O)([O-])C(F)(F)F
mass density (298.15 K, x2 = 0): 960.5 kg/m3
mass density (308.15 K, x2 = 0): 951.3 kg/m3
mass density (313.15 K, x2 = 0): 946.6 kg/m3
mass density (318.15 K, x2 = 0): 941.9 kg/m3

CC[n+]1ccn(C)c1.O=S(=O)([O-])C(F)(F)F + COCCO
mass density (298.15 K, x1 = 0.0531): 1008.9 kg/m3
mass density (298.15 K, x1 = 0.1062): 1050.2 kg/m3
mass density (298.15 K, x1 = 0.2935): 1164.2 kg/m3
mass density (298.15 K, x1 = 0.3958): 1215.9 kg/m3
mass density (298.15 K, x1 = 0.5036): 1262.3 kg/m3
mass density (298.15 K, x1 = 0.5752): 1288.4 kg/m3
mass density (298.15 K, x1 = 0.7142): 1328.7 kg/m3
mass density (298.15 K, x1 = 0.8751): 1361.1 kg/m3
mass density (298.15 K, x1 = 1): 1382.8 kg/m3
mass density (303.15 K, x1 = 0.1062): 1045.7 kg/m3
mass density (303.15 K, x1 = 0.1999): 1106 kg/m3
mass density (303.15 K, x1 = 0.2935): 1159.9 kg/m3
mass density (303.15 K, x1 = 0.3958): 1211.6 kg/m3
mass density (303.15 K, x1 = 0.4452): 1234 kg/m3
mass density (303.15 K, x1 = 0.5036): 1258.1 kg/m3
mass density (303.15 K, x1 = 0.5752): 1284.2 kg/m3
mass density (303.15 K, x1 = 0.6452): 1306.3 kg/m3
mass density (303.15 K, x1 = 0.7142): 1324.5 kg/m3
mass density (303.15 K, x1 = 0.8049): 1343.4 kg/m3
mass density (303.15 K, x1 = 0.8751): 1356.9 kg/m3
mass density (303.15 K, x1 = 0.9522): 1370.2 kg/m3
mass density (308.15 K, x1 = 0.0531): 999.9 kg/m3
mass density (308.15 K, x1 = 0.1062): 1041.2 kg/m3
mass density (308.15 K, x1 = 0.1999): 1101.6 kg/m3
mass density (308.15 K, x1 = 0.3958): 1207.4 kg/m3
mass density (308.15 K, x1 = 0.4452): 1229.7 kg/m3
mass density (308.15 K, x1 = 0.5036): 1253.8 kg/m3
mass density (308.15 K, x1 = 0.5752): 1280 kg/m3
mass density (308.15 K, x1 = 0.6452): 1302.1 kg/m3
mass density (308.15 K, x1 = 0.7142): 1320.4 kg/m3
mass density (308.15 K, x1 = 0.8049): 1339.2 kg/m3
mass density (308.15 K, x1 = 0.8751): 1352.7 kg/m3
mass density (308.15 K, x1 = 0.9522): 1366.1 kg/m3
mass density (308.15 K, x1 = 1): 1374.4 kg/m3
mass density (313.15 K, x1 = 0.0531): 995.3 kg/m3
mass density (313.15 K, x1 = 0.1999): 1097.2 kg/m3
mass density (313.15 K, x1 = 0.2935): 1151.2 kg/m3
mass density (313.15 K, x1 = 0.3958): 1203.1 kg/m3
mass density (313.15 K, x1 = 0.4452): 1225.5 kg/m3
mass density (313.15 K, x1 = 0.5036): 1249.6 kg/m3
mass density (313.15 K, x1 = 0.5752): 1275.8 kg/m3
mass density (313.15 K, x1 = 0.6452): 1297.9 kg/m3
mass density (313.15 K, x1 = 0.7142): 1316.2 kg/m3
mass density (313.15 K, x1 = 0.8751): 1348.5 kg/m3
mass density (313.15 K, x1 = 0.9522): 1361.8 kg/m3
mass density (313.15 K, x1 = 1): 1370.2 kg/m3
mass density (318.15 K, x1 = 0.0531): 990.8 kg/m3
mass density (318.15 K, x1 = 0.1062): 1032.2 kg/m3
mass density (318.15 K, x1 = 0.2935): 1146.9 kg/m3
mass density (318.15 K, x1 = 0.4452): 1221.2 kg/m3
mass density (318.15 K, x1 = 0.5036): 1245.4 kg/m3
mass density (318.15 K, x1 = 0.6452): 1293.7 kg/m3
mass density (318.15 K, x1 = 0.7142): 1312 kg/m3
mass density (318.15 K, x1 = 0.8049): 1330.9 kg/m3
mass density (318.15 K, x1 = 0.8751): 1344.4 kg/m3
mass density (318.15 K, x1 = 1): 1366.1 kg/m3

Reference: a compilation of properties of binary mixtures (doi:10.1016/j.molliq.2017.12.017)
